# Read counts are not given, so values of variants with three or more changes are uncertain.
# B1: LINE1-full (parent)
# chain: UACGUAGGUGGUUUUCCCCUGAUAGUGCUAAGGGGGCCUGGAAGUUUGGACUGGGCAGAGCUCAACACAGCGUGGCAAAGUGGCUGUGGCUAGACUGCCUCUCUGGAUUCCUCGUCACUCAGCAGGGCAUCUCUGAGAGAAAUGCC
# Variants of: B1
# Test: self-cleavage, relative activity (ratio to wild type); higher = more cleavage; in vitro, sequencing; the parent is a self-cleaving ribozyme
row,Variant,self-cleavage
1,U9C U46C U112G,2.76
2,U9C U47A A65U,0.17
3,U9C U47A U52C,1.05
4,U9C U47C A50U U52C U91A,1.02
5,U9C U47C C131U A138G,1.45
6,U9C U52A A79U,1.56
7,U9C U52C A77G U143A,1.15
8,U9C U52C U104C,0.57
9,U9C U62A A69G A124G,0
10,U9C U62A A124G,0
11,U9C U62A C113U A142U,0.04
12,U9C U62C A69C U85A,0
13,U9C U62C G72A,0.09
14,U9C U62C U73A,0.09
15,U9C U62C U73A U130C,0
16,U9C U81C U100C,2.12
17,U9C U85A A92U A142G,0
18,U9C U85C U112C C116U,0.2
19,U9C U87C U96C A142G,0
20,U9C U91A A92G,0.1
21,U9C U91A U109C,0.8
22,U9C U91C U132C,0.32
23,U9C U96C U108C,0
24,U9C U100A U108C U143C,0.77

row,Variant,self-cleavage
1,U9C U100C A117G,0
2,U9C U100C A142G,1.41
3,U9C U102C A117G,0
4,U9C U102C G122A U143A,1.54
5,U9C U104C A107G,0
6,U9C U104C U115C,1.15
7,U9C U109A U115A,1.4
8,U9C U109A U130C,1.29
9,U9C U112C A142G,1.67
10,U9C U112C C128U,1.66
11,U9C U119C A140G,1.05
12,U9G A31G U91C C113U A117U,0.64
13,U9G A43G G97A,0.18
14,U9G A57G A65G C71U A92G U130C,0
15,U9G A59G U134C A138G,0.34
16,U9G A67G A107U U115C,1.97
17,U9G A69U U119A,0
18,U9G C37G G106A,1.34
19,U9G C61G G135A A140G,0.29
20,U9G U12G U15C,0.35
21,U9G U12G U96C U119C,0.29
22,U9G U13A A31G A67U G75A U119C,0.36
23,U9G U45C A50G A77U,0.33
24,U9G U46C G48U A136U,1.22

row,Variant,self-cleavage
1,U9G U73A A136U,1.17
2,U9G U85C A124U,0.26
3,U9G U102C A138G A141G,0
4,U9G U134A A141G,0.47
5,G10A A22G A30G A59G U91C,0
6,G10A A22G A65U,0.17
7,G10A A22G U108C,1.97
8,G10A A24G A59U U119C A142U,1.33
9,G10A A24G G41A A57G,0.43
10,G10A A24U A107G,0.68
11,G10A A30G A69U,0.05
12,G10A A43G A50C,0.87
13,G10A A50G A78G,1.1
14,G10A A57G U132C,0
15,G10A A57U C113U,0.07
16,G10A A67U A140U,0.23
17,G10A A69U A77G,0.11
18,G10A A141G A142G,1.24
19,G10A C19U A31G U119A A124U,1.47
20,G10A C63U U81C,0.32
21,G10A C68U A107G,0.23
22,G10A G36C U39C U47C U85C,0.68
23,G10A U12C A57U U109C U143C,0.08
24,G10A U13C A22G A24G A65G U87C,0

row,Variant,self-cleavage
1,G10A U13C U112C A141G,1.4
2,G10A U14C U26C C113A,0.96
3,G10A U15C A57G,1.58
4,G10A U20A U46G,1.07
5,G10A U20C G34C U52C,0.89
6,G10A U20C G89A,0.06
7,G10A U20G A42G G74A U115C,1.65
8,G10A U20G A67U A129U,0.18
9,G10A U29C A129U,1.37
10,G10A U45C U52A U62A G72A A107G C113A A142G,0.05
11,G10A U52A A136G,1.15
12,G10A U112C C123U,0.94
13,G10C U62A U73G U112C,0.04
14,G10U A22G G48A A50U U115A A140G,1.11
15,G10U G35U C37G,0.81
16,G10U U26C A59G U62C G144U,0.36
17,G10U U29C A43U,2.13
18,G10U U47C A59G A142G,0.09
19,G10U U52C A94U,0.43
20,G11A A22G U62A,0.04
21,G11A A43G A57G U115C A141G,0.77
22,G11A A64U A94G,0.17
23,G11A A65G A136U,0.04
24,G11A A77U U87C,0.06

row,Variant,self-cleavage
1,G11A A79G A92G A129U A138G,0
2,G11A A79G A107C U109C G127A A129G,0
3,G11A C37U A64C,0.29
4,G11A G32C A121U U132C,1.1
5,G11A G58U A140G,0.03
6,G11A U12C U13C U23G A24G A69U,0.26
7,G11A U13C U29C A57G A138U,0.47
8,G11A U20A C38U A121U,0.95
9,G11A U26A G32U G34A,1.55
10,G11A U29C A30G U39C,0.94
11,G11A U29C G35U U45C,0.78
12,G11A U39C C51U U87C,0.14
13,G11A U45G U100C U119C,0
14,G11A U46C U47C C76U U100A U102A,2.41
15,G11A U87C U115A A129U A142G,0.28
16,G11A U96A U104C A129U A141G,0.09
17,G11A U96A U132C A141G,0.06
18,G11A U100C A124U,2.04
19,G11A U100C A138G,1.23
20,G11C A42G A67C,0.26
21,G11C A43U U87A,0.16
22,G11C C95G A129G U143A,0.03
23,G11C U29C A94G A140G,0.18
24,G11U U14A U46C U119A U130A A140U,0.8

row,Variant,self-cleavage
1,G11U U14C A77G,1.58
2,G11U U45C C84A A124U,0.06
3,U12A A22G A67C A124G A136G,0
4,U12A A22G U112C A121U G126A U130C A140G,2.45
5,U12A A24U U46C U47C A107G,0
6,U12A A30G U62C A77G C113U G127U,0.26
7,U12A A31G A142G,0.63
8,U12A A31G U81C,1.02
9,U12A A31G U91C U100A U132C A142G,1.31
10,U12A A31U U96C A140G,0.25
11,U12A A42G A43U C76U G83A U96C,0.18
12,U12A A42G A136G U143C,0.91
13,U12A A42G C51A,1.12
14,U12A A42G U91C U102C,0
15,U12A A43C U85A A121C U130C U143A,0.27
16,U12A A50G A69G,1.67
17,U12A A50U C51A A67U,0.17
18,U12A A50U U134C,1.06
19,U12A A57U U73C U119A,0.5
20,U12A A59G U104C,0.43
21,U12A A64U A121U,0.49
22,U12A A64U U102C,0.57
23,U12A A65U A94G,0.14
24,U12A A77G U112A U132C,2.01

row,Variant,self-cleavage
1,U12A A79G C128A,0.25
2,U12A A107G A121U,0.77
3,U12A C61U A140G,0.06
4,U12A C120U A124G A129G U143C,0.92
5,U12A G27A A57U U132C,0
6,U12A G36A G75A U102C A138G,0.14
7,U12A U13C U45G U62A A69G,0.48
8,U12A U14C A22G A67G,0.21
9,U12A U14C U15C A67G U108C,0
10,U12A U14C U26A G44A U100C,1.51
11,U12A U14C U130G U143C,1.5
12,U12A U20C G53A C90U U109C,0.08
13,U12A U20C U108C U119G C120U A124G A138G,0.77
14,U12A U20G U46C U100A U102C A129G,1.67
15,U12A U26G A94G,0.28
16,U12A U29A U96G U109C,0
17,U12A U29C U47C,1.13
18,U12A U39C U87C U132C,0.28
19,U12A U45G C71U U104C A141G,0.78
20,U12A U46A A92G,0.1
21,U12A U46C U62C,0.14
22,U12A U47C A78G,1.07
23,U12A U47C A92G A124U,0
